Results from the RNAGym collection of RNA variant scans (doi:10.7554/elife.90254).
The source gives no read counts; variants with many changes may rest on few reads.

B1: LINE1-full (parent)
chain: UACGUAGGUGGUUUUCCCCUGAUAGUGCUAAGGGGGCCUGGAAGUUUGGACUGGGCAGAGCUCAACACAGCGUGGCAAAGUGGCUGUGGCUAGACUGCCUCUCUGGAUUCCUCGUCACUCAGCAGGGCAUCUCUGAGAGAAAUGCC

Variants of: B1
Experiment: self-cleavage, relative activity (ratio to wild type); higher = more cleavage; in vitro, sequencing; the parent is a self-cleaving ribozyme
Variant U62A U96C A121U has a self-cleavage of 0. Work on A65G A67G A138G yielded a self-cleavage of 0. A65G A69G G106U C133U showed a self-cleavage of 0.11. In the case of U62C U115A A136G A140U, the self-cleavage is reported as 0.13. U62C A64U A138U A140G A141G showed a self-cleavage of 0.03. In the case of A64G U81G A121U, the self-cleavage is reported as 0.35. With C63U U115A A138U the self-cleavage was 0.32. Variant U62C A67G U87A A136G U143A has a self-cleavage of 0.14. In the case of A64G G127A U134G, the self-cleavage is reported as 0.09. Work on A64U A140G A141G yielded a self-cleavage of 0.55. With A67U A69U U104A U130C the self-cleavage was 0.02. U62C U85A A107U showed a self-cleavage of 0.03. A64G A107U U134A A141G showed a self-cleavage of 0.16. A67G G86A G105A A138G showed a self-cleavage of 0.04. In the case of A64G U108C U119C U134A C145G, the self-cleavage is reported as 0. With A67G U115A G139A the self-cleavage was 0.74. Work on A64C A79G C120A A121G A138G yielded a self-cleavage of 0.39. For U62C C118U A124G A129G, the self-cleavage was 0. With U62C U73A A78G U104C the self-cleavage was 0.09. In the case of A64G A77G A142G, the self-cleavage is reported as 0.57. U62C U73C A121C showed a self-cleavage of 0. With A65G U73A U119C the self-cleavage was 0.06. Work on A64G U115A U130C yielded a self-cleavage of 0.3. With A67G A92U C95U the self-cleavage was 0.03. In the case of U62C U130C U143A, the self-cleavage is reported as 0. A64U A69G G139C gave a self-cleavage of 0.07. A67U C90G U96C gave a self-cleavage of 0.07. For A64U U102C A117G, the self-cleavage was 0.39. Work on A64U G74A U104C U132A A140G yielded a self-cleavage of 0.4. Variant A67G A79G U85C has a self-cleavage of 0. U62C A67G A78U A79U showed a self-cleavage of 0. A64U U119C G122U gave a self-cleavage of 0.49. A64G U85C A124G gave a self-cleavage of 0.15. U62A U87G A129G showed a self-cleavage of 0.03. In the case of A64G A79G U130C, the self-cleavage is reported as 0.47. Variant A64G A136U U143A has a self-cleavage of 0.37. With C63A U96C C116A the self-cleavage was 0.05. Variant U62C U91C A117U has a self-cleavage of 0. Variant A65U A77U A117U A124G G126A has a self-cleavage of 0.13. In the case of A65U A79G A107G A124G, the self-cleavage is reported as 0.21. Variant A64G G88U A121G has a self-cleavage of 0. In the case of A64G A65U A107G, the self-cleavage is reported as 0. For U62A U87C U130A, the self-cleavage was 0.09. In the case of U62C U87C G139A, the self-cleavage is reported as 0.19. Work on U62C A78U U109C U130C A142G yielded a self-cleavage of 0.03. In the case of U62C A77G G106A, the self-cleavage is reported as 0. A64G A69G C95U showed a self-cleavage of 0.08. C66U G88A A124C U130A gave a self-cleavage of 0.7. For U62C A65U U119C U134C, the self-cleavage was 0.06. A65G A69G U112C A142G showed a self-cleavage of 0. With A64G U81C U87A the self-cleavage was 0.08. Work on A67G U73A U132C yielded a self-cleavage of 0.22. A64G A78G A129G U143C showed a self-cleavage of 0.51. A64G A79G G114A gave a self-cleavage of 0.38. For U62C A129U U130C G135A, the self-cleavage was 0.06. In the case of A64U A67G C145G, the self-cleavage is reported as 0.19. Variant A67U U100A A124C A141G has a self-cleavage of 0. Variant A64G G70A U104C U115C G135A has a self-cleavage of 0.39. For A65G U100C A107G, the self-cleavage was 0. In the case of A64U A92G U104C, the self-cleavage is reported as 0.26. Work on U62C A69U G75A yielded a self-cleavage of 0.01. Variant A64C A117G A141C has a self-cleavage of 0.4. For A67G A94G G97A, the self-cleavage was 0.05. Work on A67G U104C G126U yielded a self-cleavage of 0. For U62C A77U U96A, the self-cleavage was 0.05. For A65U G105U U130C, the self-cleavage was 0.12. With A64G U100C A138U the self-cleavage was 0. With A67G U112C U115A C116U the self-cleavage was 0.65. A64G A79G G106A U134C U143C showed a self-cleavage of 0.68. For U62C A79G U81C, the self-cleavage was 0. A67U G72A U112C A124U A129G gave a self-cleavage of 0.03. Variant A67U U96A U109C G139U has a self-cleavage of 0.02. With A64G U102C U115C A136G the self-cleavage was 0.46. With U62A U100C U102A the self-cleavage was 0. A65U U115C U119C gave a self-cleavage of 0.41. Variant A65G A79G U87A C123U A138G has a self-cleavage of 0.04. With A64G U73A A121G A124G the self-cleavage was 0.2. Work on A67G U81A A124G yielded a self-cleavage of 0.54. A64G U85C U104C gave a self-cleavage of 0. A67G G70U C98U U102C showed a self-cleavage of 0.01. In the case of U62C G80A U119A, the self-cleavage is reported as 0.03. A65G U104C A140G A142G gave a self-cleavage of 0. A67G G88A U112A U119C U143A showed a self-cleavage of 0.03. With A67C U81A U102C the self-cleavage was 0.15. Work on A67G A124G G127A yielded a self-cleavage of 0.67. With U62C A69C G89A A138G the self-cleavage was 0.02. A64U A107G C111U gave a self-cleavage of 0.21. With C63A A65G U130C the self-cleavage was 0.11. With U62C A67U A79G the self-cleavage was 0.05. Work on U62C U85C A94U U96C yielded a self-cleavage of 0. A64U G86A A129G showed a self-cleavage of 0.07. A64C U85C U109C A136G showed a self-cleavage of 0. U62C A79G U100A U115C U143C showed a self-cleavage of 0. Work on U62C U112C U132C yielded a self-cleavage of 0.06. A67G U87C U115A C128U showed a self-cleavage of 2.97. Work on A67U A78G A107G A129G yielded a self-cleavage of 0.17. A64G U96A C111U showed a self-cleavage of 0.03. In the case of A65G U102C U112A A142C, the self-cleavage is reported as 0.13. U62C U81A U100C gave a self-cleavage of 0. A65G A77G G114A A141G U143C showed a self-cleavage of 0.06. A65G C66U G127A gave a self-cleavage of 0.02. For A67G U73C U85C, the self-cleavage was 0. In the case of A64U U102C A124G A140U, the self-cleavage is reported as 0.35. For A64G C99U A142G, the self-cleavage was 0.23. Variant A65U G83A U109C has a self-cleavage of 0.07. Work on A65G A107G U115C yielded a self-cleavage of 0.26. With A64G U115A U119C U143C the self-cleavage was 0.19. For U62A U100A U119A, the self-cleavage was 0.04. For U62C A124U A138G, the self-cleavage was 0. A65U U119A A140G gave a self-cleavage of 0.14. For A64G A65U G82U, the self-cleavage was 0. For U62C U115C A140G, the self-cleavage was 0.08. A67U U73A A129G gave a self-cleavage of 0.1. Variant A64G A69U U115C has a self-cleavage of 0.09. For A65U U112C U130C, the self-cleavage was 0.23. Work on U62C U104A A124G U134A U143A yielded a self-cleavage of 0. In the case of A67G U81C G93A, the self-cleavage is reported as 0.07. For A65G A124G A129U, the self-cleavage was 0. Variant A67G A107G C123U G127A has a self-cleavage of 0.33. Variant A64U A69U G88A has a self-cleavage of 0.03. For A65U U112A A140U U143A, the self-cleavage was 0.35. Work on C66G A94G A129G yielded a self-cleavage of 0. Variant A65G A140G U143A has a self-cleavage of 0.08. With A65G A140G A141G the self-cleavage was 0.12. Variant A67U A78G A136G A140G has a self-cleavage of 0.08. In the case of A67G U73A U104A A107G, the self-cleavage is reported as 0.81. In the case of C63U U130C U132C, the self-cleavage is reported as 0.27. A67U U81A A138G A140C showed a self-cleavage of 0.09. Work on U62C U81C U85A yielded a self-cleavage of 0. In the case of C66U U81A A142U U143C, the self-cleavage is reported as 0.03. Variant A65U A69U U87C U96A has a self-cleavage of 0. Variant A65G A92C A129U has a self-cleavage of 0. U62C A65U A129G gave a self-cleavage of 0.09. A67G G114A A121G A136G gave a self-cleavage of 0.97. In the case of A64U U109C U119A A124G, the self-cleavage is reported as 0.23. In the case of A64C U102A A142G, the self-cleavage is reported as 0. With A65G A69G A140G the self-cleavage was 0. In the case of C66A G83U A117G A138G A141G, the self-cleavage is reported as 0.02. In the case of U62C A64U A79G U119G, the self-cleavage is reported as 0.16. U62G A77U U112A showed a self-cleavage of 0.06. With U62C U104A U108C A141G the self-cleavage was 0.07. A64G U73C A136G gave a self-cleavage of 0.16. With A67U U85C A92U U130C the self-cleavage was 0. In the case of A67G U115C A140U, the self-cleavage is reported as 0.6. Variant U62C A121U U143C has a self-cleavage of 0.04. Work on A64C U73A U104C A117G A124U yielded a self-cleavage of 0.68. For A67G U87C U143C, the self-cleavage was 2.04. For A67G G74A G139U, the self-cleavage was 0.26. Work on U62G A78G U100A yielded a self-cleavage of 0.1. Work on U62C U81C A141U yielded a self-cleavage of 0.13. U62C U85A U115A A142G gave a self-cleavage of 0.06. C63U U112C A136U A140G gave a self-cleavage of 0.4. Work on U62C A94U U104C yielded a self-cleavage of 0.03. With C66A A69G U73A U134A the self-cleavage was 0.06. For U62C C63U A78U, the self-cleavage was 0.09. For A65U U91C A142G, the self-cleavage was 0.02. For A67G G74A U100C, the self-cleavage was 0.52. For U62C A142G U143C, the self-cleavage was 0. For U62C A78G A140G A141G, the self-cleavage was 0.04. With C63U A78G U104A A124G the self-cleavage was 0.13. A64G A69G C101U gave a self-cleavage of 0. Work on A65G G74A U108C yielded a self-cleavage of 0.01. C63A A64C U81A U108A U132C showed a self-cleavage of 0.05. Variant A67G U85G U109A has a self-cleavage of 0.15. In the case of U62C C90U U108C A136G U143C, the self-cleavage is reported as 0. In the case of A65U A69G A77G, the self-cleavage is reported as 0.04. Work on U62C A77G U87C C123U A138G yielded a self-cleavage of 0.03.
